Reference: patent US20240076406A1 (NATIONAL RESEARCH COUNCIL OF CANADA, published 2024)

How the values were obtained:
[1] = biological target: hCA-IX-ECD monomeric (monomeric parental CA-IX extracellular domain) (human, UniProt Q16790 part only); test: BLI (Octet); Fc fusion captured on anti-human Fc (AHC) biosensors, CA-IX in solution, global fit
[2] = biological target: hCA-IX expressed on cells (SKRC52, SKRC59, 67NR^hCA-IX) (human, UniProt Q16790); test: Plate-based cell binding assay, one site specific binding fit; cell line not given

B1: sdCA9-1-Fc (Fc fusion)
chain: QVQLVESGGGLVQAGGSLRLSCAASGFTFDDWAIGWFRQAPGKEREGVSCISKRHGTTHYADSVKGRFTISSDNAKNTVYLRMNGLKPEDTAVYYCAASSWGSCTVATMRDVDRYDYDYWGQGTQVTVSSA[no letters for human IgG1 Fc]
notes: The chain is built here from its parts without the leader; Human IgG1 Fc fusion produced in CHO3E7 cells and purified on protein A. Fc-mediated dimerisation is described only in general terms; also called sdCA9-Fc 1
[1]
  Kd: 16.3 nM
[2]
  Kd: 3.49 nM

B2: sdCA9-2-Fc (Fc fusion)
chain: QVKLEESGGDLVQPGGSLRLSCAASGFTLDYYAIGWFRQAPGKEREGVSCFSSVDGSTYYADSVKGRFTISRDNAKNMVYLQMNSLKPEDTAIYYCAAELYGELGVATVQAMCRLTTPGGDYWGQGTQVTVSSA[no letters for human IgG1 Fc]
notes: The chain is built here from its parts without the leader; Human IgG1 Fc fusion produced in CHO3E7 cells and purified on protein A; also called sdCA9-Fc 2
[1]
  Kd: 17.8 nM
[2]
  Kd: 0.658 nM
